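Growth conditions: 96-well plates. Treatment: test compound, 48 hours, 5 concentrations. Analysis: linear interpolation between bracketing concentrations; unreached endpoints set to highest concentration. The concentration for 50% growth inhibition is given as GI50. At the TGI there is no net growth.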
System: NCI-H322M lung
Experiment: NCI anticancer screen, dose series, 48 h

## Cc1ccc(/C(CSc2nnc(-c3c[nH]c4ccccc34)n2-c2ccccc2)=N/O)cc1
  GI50: 3.54 µM
  TGI: 19.8 µM

## CC(C)N=C([Se])NC(=O)c1ccccc1
  GI50: 2.11 µM
  TGI: 6.32 µM

## COc1ccc(-c2ccnc(SCc3cc4cc(Cl)ccc4[nH]c3=O)n2)cc1
  GI50: 18.8 µM
  TGI: > 100 µM
